About 7,200 (1.8%) of roughly 410,000 compounds were called active. This list was built around the results that the source calls inconclusive (neither active nor inactive); the mix of calls is not that of the screen. Calls follow the shape of the dose curve; as a rule, active = well fitted activation curve with a large enough effect; inconclusive = small, poorly fitted or top-dose-only effect, or another doubt; inactive = no such curve, though single readings can be large or run the other way. Potencies beside an inconclusive call are fits to weak or partial responses and may not hold up.
Assay: qHTS of TDP-43 Inhibitors; also: nearly all actives have a fitted effect of over 50% in size; as to growth rescue (activation): % of control where 0% means no effect
Conditions: TDP-43 expressing yeast growth rescue, BacTiter-Glo, 24 h; growth rescue (activation): at 46.1 µM (top of the series) unless noted
In short: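 Readout is BacTiter-Glo luminescence of cell growth, so inhibitors register as activators. TDP-43-expressing yeast at OD600=0.02 in galactose medium, after raffinose pregrowth to mid-log, were incubated with compound for 24 hr at 30 deg C.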
Potency is read from the fitted curve at half-maximal effect; tags tell the direction and shape of the fitted curve.

Potency, inconclusive:
COc1cccc(-c2nc(CS(=O)CC(=O)N3CCN(c4cccc(C(F)(F)F)c4)CC3)c(C)o2)c1 (stereo unspecified) 35.5 µM [activator, single point]
COCCNC(=O)C1Nc2ccc(OC(F)(F)F)cc2C2C=CCC12 (stereo unspecified) 31.6 µM [activator, partial curve]
Cc1cc[n+](CC(=O)Nc2ccccc2)cc1 7.94 µM [activator, partial curve]
Cc1ccc(NC(=S)NCC23C=CC(O2)C2C(=O)N(c4ccc(C)cc4)C(=O)C23)cc1 (stereo unspecified) 22.4 µM [activator, partial curve]
O=C(NCCNc1ccc([N+](=O)[O-])cc1C(F)(F)F)c1ccc(F)cc1 22.4 µM [activator, partial curve]
Cc1noc(/C=C/N(C)C)c1S(=O)(=O)N1CCCC(C(=O)NCc2ccco2)C1 (stereo unspecified) 28.2 µM [activator, single point]
CCCCNC(=O)C1(C)CCCCN1C(=O)c1oc2ccccc2c1C (stereo unspecified) 35.5 µM [activator, partial curve]
CC1CCN(c2ccc([N+](=O)[O-])cc2C(=O)NCC2CCCO2)CC1 (stereo unspecified) 10 µM [activator, partial curve]
O=C(Nc1ccc2c(c1)CCCN2C(=O)c1ccccc1)c1ccccc1Br 11.2 µM [activator, partial curve]
Cc1ccc(N2CCN(C(=O)c3nn(C)c4c3CSc3ccccc3-4)CC2C)cc1 (stereo unspecified) 2.24 µM [activator, full curve]
Cc1ccc(C(=O)CSc2nc3ccccc3c(=O)[nH]2)cc1 3.98 µM [activator, full curve, poor fit]
CCC(C)Sc1nc2ccccc2c(=O)[nH]1 (stereo unspecified) 0.398 µM [activator, full curve, poor fit]
Cc1c(Cc2ccccc2)c(NCCCO)n2c(nc3ccccc32)c1C#N 10 µM [activator, partial curve]
CC(=O)c1cccc(OCCCOc2cccc3cccnc23)c1 11.2 µM [activator, partial curve]
Cc1cccc(NC(=O)c2c(Br)sc3c2CCCC3)c1 3.55 µM [activator, partial curve]
COc1cc(C2C(C#N)=C(N)Oc3cc(C)oc(=O)c32)ccc1OC(=O)N1CCOCC1 (stereo unspecified) 1.41 µM [activator, full curve, poor fit]
COc1ccccc1N1CCN(C(=O)CSc2nc(-c3ccc(C(C)C)cc3)no2)CC1 14.1 µM [activator, single point]
CCOC(=O)c1nc(Nc2cccc(C)c2)c2ccccc2n1 10 µM [activator, partial curve]
CCCn1nc(C(=O)Nc2nc(-c3ccccn3)cs2)c2ccccc2c1=O 14.1 µM [activator, partial curve]
COc1ccc(-c2nnc(SC(=O)N3c4ccccc4Sc4ccccc43)o2)cc1 14.1 µM [activator, single point]
CCOC(=O)Cc1csc(NC(=O)CSc2nnnn2-c2ccc(CC)cc2)n1 35.5 µM [activator, single point]
CCOC(=O)c1cn[nH]c1NC(=S)Nc1ccc(Cl)cc1 11.2 µM [activator, partial curve]
COCCNc1nc2cc(-c3cccc(Cl)c3)sc2c(=O)n1C 1.12 µM [activator, full curve]
Nc1nc2c(Cl)cc(Cl)cc2s1 12.6 µM [activator, partial curve]
O=C(O)CCc1ccc(S(=O)(=O)Nc2ccccc2N2CCCCC2)cc1 35.5 µM [activator, single point]
N/C(=N\OC(=O)c1ccc(Cl)cc1Cl)c1ccccn1 28.2 µM [activator, single point]
CCOc1ccc2nc(N3CCCN(C(=O)Nc4ccccc4C)CC3)c(C#N)cc2c1 15.8 µM [activator, single point]
O=C1c2ccccc2C(=O)N1CCc1csc(-c2cccc(Cl)c2)n1 35.5 µM [activator, single point]

Potency, active:
N/C(=N\OC(=O)c1ccc(Cl)c([N+](=O)[O-])c1)c1ccccc1 12.6 µM
Cc1cnc(NC(=O)CSc2ccc(Cl)cc2)s1 11.2 µM
CCCCCOc1ccc(C(=O)N(Cc2ccccc2)C2CCS(=O)(=O)C2)cc1 (stereo unspecified) 20 µM
Cc1ccc2nc(/C(C#N)=C/c3ccc(-c4cccc(Cl)c4)o3)[nH]c2c1 2 µM
Cc1csc(NC(=O)C(Cc2ccccc2)n2cccc2)n1 (stereo unspecified) 12.6 µM

Growth rescue (activation), inactive:
Cc1ccc(Cl)cc1NC(=O)CCS(=O)(=O)c1ccc(Br)s1 12.3%
COc1cc(-c2cc3nc(NCCc4ccncc4)ccn3n2)cc(OC)c1OC 20%
CCOc1ccccc1NC(=O)C1CCN(C(=O)C2CC(=O)N(c3ccc(C)cc3)C2)CC1 (stereo unspecified) -6.28%
COCCNC(=O)CSc1nc(-c2ccccc2)c(-c2ccccc2)o1 -10.7%
O=c1oc2ccc(Br)cc2cc1-c1nc2ccccc2o1 -12.9%
CC(=O)N1c2ccc(S(=O)(=O)N3CCC(C(=O)N4CCN(c5ccc(Cl)cc5)CC4)CC3)cc2CC1C (stereo unspecified) 5.18%
COc1ccc(N(CC(=O)Nc2ccc(OC)cc2OC)S(=O)(=O)c2ccccc2)cc1 0%
CCOc1ccc(NS(=O)(=O)c2ccc(C(=O)N(C)Cc3cccc(OC)c3OC)cc2)cc1 -12.6%
Cc1ccc(S(=O)(=O)CC(=O)c2ccc(C)c([N+](=O)[O-])c2)cc1 10.2%
N=c1n(CCCOc2ccc(F)cc2)c2ccccc2n1CC(N)=O -6.01%
Cc1cc(NC(c2cccnc2)c2ccc3cccnc3c2O)no1 (stereo unspecified) 1.85%
Cc1ccc2nc(SCC(=O)N3CCCC3)nc(=O)n2c1 11%
Fc1ccc(NC(=S)Nc2ccc(Cl)cc2Cl)cc1 20.9%
